Key:
C3H10T1/2v-src/v-myc = assay: Focus-forming assay, culture of tumor cells alone (Examples 3, 9); assay type: cell-based, mouse; details: C3H10T1/2 v-src/v-myc alone, 5×10^2 cells per plate; percentage of treated with respect to untreated (=100); 400 nM CD T0-T84; class B drug T24-T72 (40 µM 3FT, 80 µM 2ClAd, 40µM Ara C)
[1] = tested on: mixed culture of C3H10T1/2 and C3H10T1/2v-src/v-myc; assay: Focus-forming assay, mixed culture of normal and tumor cells (Examples 3, 9); details: mixed culture, second entry of the cell (tumor cells); percentage of treated with respect to untreated (=100); 400 nM CD T0-T84; class B drug T24-T72 (40 µM 3FT, 80 µM 2ClAd, 40µM Ara C)
tumor cells in culture = assay: Dose/response: concentration eradicating proliferating / tumor cells (CBCT); assay type: cell-based; details: standard conditions
Protocol: Concerning the concentration of class B compound (CBCT), it is comprised in a range that should be calculated as a function of the CT, the target tumor cell type and the half-life in culture of the administered class B compound.
In particular, for the trifluorothymidine this concentration is greater than or equal to 40 µM, in particular comprised in the range 10µM - 800 µM, preferably 50 µM; for the cytarabine, this concentration is generally greater than or equal to 40 µM, in particular comprised in the range 40 µM - 600 µM, preferably 40 µM; for the 6-thioguanine, this concentration is generally greater than or equal to 50 µM, in particular a concentration comprised in the range 50 µM - 600 µM, preferably 100 µM.
In fact, by virtue of the protective action of the class A compound on the normal cells, such concentration may be increased up to 10-20 fold the mentioned minimum concentration thereof.

C3H 10T1/2(v-src/v-myc) = assay: Colony forming assay, interference with 3FT toxic effects on tumor cells (Example 6); assay type: cell-based, mouse; details: 5×10^2 cell/60mm; 400 nM CD or 3 µM CB T0-T84; 30 µM 3FT T24-T72; untreated 111
Protocol: In order to verify any possible interference between CD and 3FT actions on tumor cells, a series of colony forming assays has been carried out on C3H 10T1/2(v-src/v-myc).
The cells have been therefore plated on 60mm plates at a 5×10^2 cell/60mm density, at the culture conditions described in example 3, and the initial time of 12 hours have been subjected to the following treatments.
After the above administrations, cells were treated as described in example 3.

normal cells = assay: Dose/response: concentration arresting normal cells in the intermitotic phase (CAP); assay type: cell-based; details: standard conditions
Protocol: It generally results in cell cycle arrest at the binucleate stage in at least 40% of class A compounds treated proliferating normal cells, using the minimal drug concentration (i.e. sufficient to reversible induce its effects, on target cells, without causing significant damage, experimentally defined by dose/response curves), giving the above result without significant toxicity and an incubation time generally ranging from 12 to 48 hours depending on cell type.
As to the CAP parameter, the corresponding value is a class A compound concentration causing the arrest of at least the 40% of normal cells in the intermitotic stage; such concentration is experimental deduced by dose/response experiments that define the appropriate value range for different cell types and compounds.
For the above class A compounds, under standard conditions this value ranges within 1 nM to 40 µM concentrations.. […]
In the light of these tests, the CAP and CACT values to be assigned to several class A compounds as the concentration range yielding the cytodieresis arrest, and, within said concentration range, the value of the minimum concentration required for attaining this effect, forming the preferred embodiment, has been determined. […]

C3H 10T1/2v-src/v-myc = assay: Colony formation assay, monoculture (Example 4; Table 9); assay type: cell-based, mouse; details: C3H10T1/2 v-src/v-myc
Excerpt: (§1) In order to quantify the effects of the combined CD/3FT use of the above example 3, the first, second and third assay series described in example 4 has been carried out on monocultures at a cell density allowing countable colonies.
(§2) The culture conditions, compounds concentrations, and treatments are the same described in example 3, with the exception of the cell system used have been for the first assay series a monoculture of C3H 10T1/2 cells at the clonal densities of 1×10^3, 5×10^3 and 1×10^4, for the second assay series a monoculture of C3H 10T1/2v-src/v-myc cells at the clonal densities of 5×10^2, 1×10^3 and 5×10^3, and for the third assay series a monoculture of L cells at the clonal densities of 5×10^2, 1×10^3 and 5×10^3.
(§3) The results of the assay series described in example 4 above carried out using dihydrocytochalasin B (referred to as H2CB in the table) and 3FT is reported in the following table 9.

C3H10T1/2 = assay: as above; assay type: cell-based, mouse
Excerpt: as §1, §2, §3

In the case of Nc1nc(Cl)nc2c1ncn2[C@H]1C[C@H](O)[C@@H](CO)O1 [2ClAd], the “number of transformation foci” value (C3H10T1/2v-src/v-myc) is reported as 0 and the “number of transformation foci” value [1] is reported as 0 0.

For Nc1nc2nc[nH]c2c(=S)[nH]1 [6ThG, 6-thioguanine], the “CBCT, minimum functional concentration required to eradicate tumor cells in culture” value (tumor cells in culture) was 100 µM.

With C=C1[C@@H](C)[C@H]2[C@H](Cc3ccccc3)NC(=O)[C@]23OC(=O)/C=C/[C@H](O)CCC[C@@H](C)C/C=C/[C@H]3[C@@H]1O [cytochalasin B] the Colonies (C3H 10T1/2(v-src/v-myc)) was 41.

C=C1[C@@H](C)[C@H]2[C@H](Cc3ccccc3)NC(=O)[C@]23OC(=O)CC[C@H](O)CCC[C@@H](C)C/C=C/[C@H]3[C@@H]1O [dihydrocytochalasin B, 21,22-dihydrocytochalasin B] was tested, and the “CAP, minimum functional concentration for arrest in intermitotic phase of normal cells” value (normal cells) was 2 µM, the number of colonies (C3H 10T1/2v-src/v-myc; 1×10^3 cells, class A drug T0-T84, 40 µM 3FT T24-T72) was 38 and the number of colonies (C3H 10T1/2v-src/v-myc; 5×10^2 cells, class A drug T0-T84 (400 nM CD or H2CB), 40 µM 3FT T24-T72) was 21. The number of colonies (C3H 10T1/2v-src/v-myc; 5×10^3 cells, class A drug T0-T84, 40 µM 3FT T24-T72) was “Confluent”, the number of colonies (C3H10T1/2; C3H10T1/2, 1×10^3 cells, class A drug T0-T84 (400 nM CD or H2CB), 40 µM 3FT T24-T72) was 58 and the number of colonies (C3H10T1/2; C3H10T1/2, 1×10^4 cells, class A drug T0-T84, 40 µM 3FT T24-T72) was “Confluent”. For the same molecule, the number of colonies (C3H10T1/2; C3H10T1/2, 5×10^3 cells, class A drug T0-T84, 40 µM 3FT T24-T72) was “Confluent”.

Source: patent EP1214397B1, “METHOD FOR THE SELECTIVE PROTECTION OF PROLIFERATING NORMAL CELLS AND THE SELECTIVE ERADICATION OF TUMOR CELLS HAVING AN INACTIVE P53 PATHWAY” (UNIVERSITA' DEGLI STUDI DI ROMA "LA SAPIENZA", priority 1999, dated 2001)
